Whole data set: some 33,000 sequences, median “E-score (-0.5 to 0.5)” near -0.012, cut for the highest 2% near 0.29. The list shows a part of the results.
Each sequence was assayed against T1, Ybr033w (UniProt P38073) (assay: PBM E-score (8-mer binding enrichment) (E-score (-0.5 to 0.5)); higher = stronger / more preferred TF binding; most listed sequences are background and not binding sites). Settings: protein concentration: 200 nM; construct: GST-full length.
T1 sequence: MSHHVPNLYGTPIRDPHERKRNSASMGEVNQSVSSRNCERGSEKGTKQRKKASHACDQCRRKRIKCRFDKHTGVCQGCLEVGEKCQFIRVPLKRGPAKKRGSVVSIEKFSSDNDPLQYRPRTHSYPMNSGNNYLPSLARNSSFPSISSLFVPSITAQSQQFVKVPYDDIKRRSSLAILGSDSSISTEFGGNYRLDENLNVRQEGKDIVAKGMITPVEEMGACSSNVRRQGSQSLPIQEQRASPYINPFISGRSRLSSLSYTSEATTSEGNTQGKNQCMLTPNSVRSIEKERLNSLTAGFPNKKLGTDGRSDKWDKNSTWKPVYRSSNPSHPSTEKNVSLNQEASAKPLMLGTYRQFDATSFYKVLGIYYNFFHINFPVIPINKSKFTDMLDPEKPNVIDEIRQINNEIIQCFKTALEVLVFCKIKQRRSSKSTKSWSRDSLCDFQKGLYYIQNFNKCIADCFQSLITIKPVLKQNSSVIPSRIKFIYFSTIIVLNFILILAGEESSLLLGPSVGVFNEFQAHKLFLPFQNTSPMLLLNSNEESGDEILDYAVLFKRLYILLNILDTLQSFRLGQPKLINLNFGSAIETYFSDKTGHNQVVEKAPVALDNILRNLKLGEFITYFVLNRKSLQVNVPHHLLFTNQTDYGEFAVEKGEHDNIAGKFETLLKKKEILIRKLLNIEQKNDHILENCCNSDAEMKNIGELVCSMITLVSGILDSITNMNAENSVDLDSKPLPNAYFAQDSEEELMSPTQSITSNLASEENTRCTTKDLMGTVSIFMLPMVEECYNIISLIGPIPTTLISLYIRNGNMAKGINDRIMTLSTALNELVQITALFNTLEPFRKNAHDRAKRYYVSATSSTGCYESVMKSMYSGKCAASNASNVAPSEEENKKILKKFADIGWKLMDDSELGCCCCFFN
Procedure, shortened: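 Universal all-10-mer Agilent arrays, fresh or stripped once, were converted to double-stranded form by primer extension. GST-tagged yeast transcription factors from PURExpress in vitro transcription/translation, full-length or DNA-binding domain only, were applied at about 100-200 nM and detected with fluorescent anti-GST. After masliner normalisation, the Universal PBM Analysis Suite scored each ungapped eight-base word together with its reverse complement by E-score.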

Sequence | PBM E-score
AGAACAAA | 0.33
CAGCTAGC | -0.152
CGGTTTAC | -0.049
TTTAGAAA | 0.273
CGATCTCC | -0.0779
GCTCTATA | -0.218
AGTCCTGA | -0.0791
AATGGACT | -0.032
CTGACTGA | -0.175
GTTTGCCA | 0.0264
AAACCCAT | 0.155
ACGAGACG | -0.0628
AACCGTGT | 0.0694
AGTGCCGG | -0.16
ATGATGGG | -0.214
GCGTCAAC | -0.174
ATAGCAAG | 0.0646
AGCTTGAT | -0.0565
CACTAAGC | 0.093
ACTGCACC | -0.018
CACGCAAG | 0.073
GTTAGTCA | 0.0324
CGGGGACA | -0.307
CATTGAGC | -0.0469
TAGTCAAA | 0.225

Sequence | PBM E-score
TTACGGAA | 0.13
CGAAGAGC | -0.0243
ACGGTCCT | -0.389
CGATCTTA | -0.0455
ATGCGCTA | 0.0737
CCGCGTAA | -0.12
CTTAAGAC | -0.0563
CTGAGGCA | -0.251
CAACTCAA | 0.261
CGATGCGC | 0.0464
CGTAAAAG | 0.215
AACGATAT | 0.265
AAAATCCG | 0.226
ATACTATA | 0.217
AAAATCGA | 0.16
GCGTCTGA | -0.0106
ATCCCCCA | -0.371
GAACGCCC | -0.0907
GCCTAAGC | -0.182
ACTGGAAG | 0.0135
ATGTGATA | 0.104
AATTACGT | 0.0775
AATTTGGC | 0.088
ACGAGCGC | -0.0924
AAGACGGG | -0.19

Sequence | PBM E-score
AGACGGAC | -0.0985
GACCGTAA | -0.0228
CAGCAGTA | -0.173
GCATTACC | -0.197
CAGCTCTC | -0.186
AAATCTTG | 0.161
TAGGACTA | -0.018
AACGTCGA | 0.0522
CAAACGTG | 0.0486
TAGCATAA | 0.131
CACAATAG | 0.0709
GGCCGGAA | 0.00433
CTCGCTTC | -0.141
ACGGTAGC | -0.123
ACATATGG | 0.0477
CTACAACC | 0.0217
GGCGCAGA | -0.125
GGCCGGCA | -0.101
TGACCACA | 0.0413
ATTCCAAA | 0.122
CGATAGAG | -0.105
CGCACTCA | -0.00522
ACTTCTAG | -0.275
AAACATAG | -0.0824
AAGTGCGG | 0.00906

Sequence | PBM E-score
CCATTGTC | -0.115
GCCAGTAA | -0.181
ACATGTTC | 0.0642
ACAATAGA | 0.0135
AGCCGTAG | 0.0421
ATTGGGGG | -0.226
AATTGTGC | 0.0541
CGGCCGCC | -0.311
CCTATCGA | -0.0516
GAGGCCGA | -0.114
CGTCAGGC | -0.119
CTCCCACC | -0.266
CGTGCTCA | -0.0648
CCACGACG | -0.112
GATGCCAA | -0.0929
ACTTTATG | 0.132
CGTCTAGA | -0.0834
GCGTACGA | -0.0653
TAATAGGA | 0.233
TCTTTAAA | 0.23
AGGGTTTA | 0.099
ATTGAGGG | -0.0862
ATAAGTAT | 0.244
CCGCTCCC | -0.344
AGACTCAC | -0.129

Sequence | PBM E-score
ATATCTAG | 0.112
CAGGTTAG | -0.0552
CTTCGTTA | 0.0726
ATTCGCCG | 0.0215
CGACACCA | -0.117
CGCGTAAG | -0.00396
GTAGCGAA | 0.0213
CAATTATC | 0.365
CAGCGCCA | -0.0653
ACTGATTA | 0.041
TCGTGTCA | -0.0803
CCCTGCGC | -0.153
AAACTATG | 0.031
ACGTTAAA | 0.223
CCACGTAG | -0.372
CGTGCTTC | -0.00539
CGTTAAAG | 0.0631
GCGCTTCA | -0.119
AAGACCAA | 0.0438
AAGGGGCG | -0.388
GAGACTGC | -0.177
AACTTATC | 0.15
ATCACCCC | -0.165
CTAAAAAC | -0.0569
CCTAGCCG | -0.157

Sequence | PBM E-score
AGCCCAGA | -0.019
GCGCGTCC | -0.228
ACAACAGA | 0.0571
TACCCGAA | -0.0207
CGCACCTA | -0.142
ACATATCG | 0.142
ATAGGCAG | 0.146
CGTACTTC | 0.107
GAGGTTCA | 0.102
TGAGAAAA | 0.171
GCACTGCC | -0.0815
CATTTCTC | 0.176
AACCCCCA | -0.327
AAACCGAT | -0.13
CAGCGGCC | -0.213
GCGGCTCA | -0.114
ATGTGGTG | 0.00042
CGTTATAG | 0.14
AGAGGCGC | -0.253
ACGACCAC | -0.074
ACGCCCCT | -0.389
GGCTAGAA | -0.0194
AGAGTGAA | 0.133
CGGCGCCC | -0.165
CGGCTCTC | -0.149

Sequence | PBM E-score
ATCGGGGA | -0.0917
AGCGGATA | -0.0282
GAGCTCAA | -0.0698
ACGTTCCT | 0.0175
CTAACAAG | 0.143
GGAATACA | -0.0739
ACCAAGAG | -0.131
AGGATCCT | -0.0773
CTGTACAG | 0.0953
CTTTGGGA | 0.0787
CGAAGCTA | 0.0437
GCAACAAA | 0.153
CGCCTCTA | -0.0522
CCGACAGA | 0.161
CCCCACAA | -0.229
ATGCTTGC | -0.0843
ACATTACG | 0.0344
CCTCGGGC | -0.251
AACGACGG | 0.0565
CGCGAGTA | 0.00596
ACGGAGGA | -0.217
CCACATTA | 0.0151
CATTGTGA | 0.0401
AAACTGTG | 0.166
GGCCTCAC | -0.213

Sequence | PBM E-score
AGGCGCTC | -0.241
GATGACAA | 0.0655
GCGAACAC | -0.209
CCTTGCAG | -0.225
TAACTCAA | 0.172
ATATGCGA | 0.196
ATCTGCTG | -0.0498
CCAGGGGC | -0.399
CTCCCCCA | -0.28
CTCACCTC | -0.171
AAAGCTAT | 0.192
CTGGAAGC | -0.1
AATGCACC | 0.0608
CATAGAGC | -0.133
AATTAACC | 0.158
ATACGACA | 0.118
ATAAGAAT | 0.18
AGCAACGC | -0.115
AAAGGCCA | -0.134
ACCAGTAA | 0.118
ACATTACA | 0.256
GATCCATA | 0.0143
ACTGACTC | -0.00303
GAACGCCA | -0.133
TGCTTGAA | 0.222

Sequence | PBM E-score
ACCCGGTA | 0.0125
CTGGGTTA | -0.00774
CAAGTGAC | -0.0343
CTGAGGTC | -0.321
CCTCTTGC | -0.238
GAGGTTCC | -0.153
CGAGTCAG | -0.078
CTATACCA | 0.0571
AACTTGAT | 0.333
AGTAGTAT | 0.185
GGACGTAC | -0.268
ACAGCAGC | 0.0657
CACTCCAG | -0.0494
CAGCTGAG | -0.0513
CGACGGCG | -0.264
CGCCAATA | 0.0874
ACTTACCT | -0.046
AATGCCTA | 0.09
GAAGTAAA | 0.229

From the supplement of paper PMC3334620
